Results published in the RNAGym collection of RNA variant scans (doi:10.1093/nar/gkz1192).
The source gives no read counts; variants with many changes may rest on few reads.

B1: CPEB3 Ribozyme (parent)
chain: UAACAGGGGGCCACAGCAGAAGCGUUCACGUCGCAGCCCCUGUCAGAUUCUGGUGAAUCUGCGAAUUCUGCUGUAUAUCUC

Variants of: B1
Test: self-cleavage, relative activity (ratio to wild type); higher = more cleavage; in vitro, sequencing
How it was run: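 CPEB3 self-cleaving ribozyme mutant libraries were made by rounds of error-prone PCR, barcoded, and transcribed in vitro with T7 RNA polymerase for 5 hours at 37°C. Cleavage occurred during transcription and a 15 min DNase I step before EDTA stop. RNAs were reverse transcribed with template switching and Illumina-sequenced, with DNA sequencing mapping barcodes to variants. Relative activity is the variant's cleaved/total read fraction divided by wild type's (minimum 5 reads), averaged across three batches.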

Variant	self-cleavage
UAACAGGGGGCCACAGCAGAAGCGUUCACGUCGCAGCCCCUGUCAGGUUCUGGUGGAUCUGCGAAUGCUGCUGUAUAUCUC [A47G A56G U67G]	0.44
UAACAGGGGGCCACAGCAGAAGCGUUCACGUCGCAGCCCCUGUCAGGUACUGGUGGUUCUGCGAAUUCUGCUGUAUAUCUC [A47G U49A A56G A57U]	0.15
UAACAGGGGGCCACAGCAGAAGCGUUCACGUCGCAGCCCCUGUCAGGUUCCGGUGAAUCUGCGAAUUUUGCUGUACAUCUC [A47G U51C C68U U76C]	1.04
UAACAGGGGGCCACAGCAGAAGCGUUCACGUCGCAGCCCCUGUCAGGUUCUGGUGAAUCUGCUAAUUCCGCUGUAUAUCUC [A47G G63U U69C]	0.42
UAACAGGGGGCCACAGCAGAAGCGUUCACGUCGCAGCCCCUGUCAAAUUCUGGUGAAUCUGCGUAUUCCGCUGUAUAUCUC [G46A A64U U69C]	0.15
UAACAGGGGGCCACAGCAGAAGCGUUCACGUCGCAGCCCCUGUCAGGUUCUGGUGAGUCUGCGAAUUCUGCUGUAUAUCCC [A47G A57G U80C]	0.57
UAACAGGGGGCCACAGCAGAAGCGUUCACGUCGCAGCCCCUGUCAGGUUCUGGUGGAUCAGCGGAUUCUGCUGUAUAUCUC [A47G A56G U60A A64G]	0.23
UAACAGGGGGCCACAGCAGAAGCGUUCACGUCGCAGCCCCUGUCAGGUUCCGGUGAAUCUGCGAAUACUGCUGUAUAUCUC [A47G U51C U67A]	0.42
UAACAGGGGGCCACAGCAGAAGCGUUCACGUCGCAGCCCCUGUCAUAUUCAGGUGAAUCUGCGGAUUCUGCUGUAUAUCUC [G46U U51A A64G]	0.1
UAACAGGGGGCCACAGCAGAAGCGUUCACGUCGCAGCCCCUGUCAGGUUCUGGUGAAUCUGCGAAUCCUGCUGUAUAUCAC [A47G U67C U80A]	0.22
UAACAGGGGGCCACAGCAGAAGCGUUCACGUCGCAGCCCCUGUCAGGUUCUGGUGAAUCUGCGAAACCUGCUGUAUAUCUC [A47G U66A U67C]	0.49
UAACAGGGGGCCACAGCAGAAGCGUUCACGUCGCAGCCCCUGUCAAGUUCUGGUGAAUCUGCGAAUUCAGCUGUAUAUCUC [G46A A47G U69A]	0.16
UAACAGGGGGCCACAGCAGAAGCGUUCACGUCGCAGCCCCUGUCAAAUUCUGGUGAAUCUGCGGAUUCUGCUGUAUACCUC [G46A A64G U78C]	0.13
UAACAGGGGGCCACAGCAGAAGCGUUCACGUCGCAGCCCCUGUCAGUCUCUGGUGAAUCUGCGAAUUCUGCUGUAUAACUC [A47U U48C U78A]	0.19
UAACAGGGGGCCACAGCAGAAGCGUUCACGUCGCAGCCCCUGUCAGUUUCUGGUGGACCUGCGAAUUCUGCUGUAUAUCUC [A47U A56G U58C]	0.32
UAACAGGGGGCCACAGCAGAAGCGUUCACGUCGCAGCCCCUGUCAGGUUCUGGUGAGUCCGCGAAUUCUGCCGUAUAUCUC [A47G A57G U60C U72C]	0.1
UAACAGGGGGCCACAGCAGAAGCGUUCACGUCGCAGCCCCUGUCAGUCUCUGGUGUAUCUGCGAACUCUGCUGUAUACCUC [A47U U48C A56U U66C U78C]	0.06

Variant	self-cleavage
UAACAGGGGGCCACAGCAGAAGCGUUCACGUCGCAGCCCCUGUCAGGUUCUGGUGGAUCUGCGAAUUCUGCUGUAUAACUC [A47G A56G U78A]	0.76
UAACAGGGGGCCACAGCAGAAGCGUUCACGUCGCAGCCCCUGUCAAAUUCUGGUGAAUCUGCGAAUUCAGCCGUAUAUCUC [G46A U69A U72C]	0.34
UAACAGGGGGCCACAGCAGAAGCGUUCACGUCGCAGCCCCUGUCAGCUACUGGUGAGUCUGCGUAUUCUGCUGUAUAUCUC [A47C U49A A57G A64U]	0.15
UAACAGGGGGCCACAGCAGAAGCGUUCACGUCGCAGCCCCUGUCAGGUUCUGGCGAAUCUGCGAAUUCUGCUGUAUAUCAC [A47G U54C U80A]	1.2
UAACAGGGGGCCACAGCAGAAGCGUUCACGUCGCAGCCCCUGUCUGAUUCUGGUGAAUCUGCGAAUUCUGCUGUACACCUC [A45U U76C U78C]	0.54
UAACAGGGGGCCACAGCAGAAGCGUUCACGUCGCAGCCCCUGUCAGGUUCUGGUGAAUCUGAGAAUCCUGCUGUACAUCUC [A47G C62A U67C U76C]	0.41
UAACAGGGGGCCACAGCAGAAGCGUUCACGUCGCAGCCCCUGUCAGUUUCUGGUGUAUCUGCGAAUUCUGCUGUAAAUCUC [A47U A56U U76A]	0.14
UAACAGGGGGCCACAGCAGAAGCGUUCACGUCGCAGCCCCUGUCAGGUUCUGGUGAAUUUGCGAAUUCUGCUGUAUAUCCC [A47G C59U U80C]	0.39
UAACAGGGGGCCACAGCAGAAGCGUUCACGUCGCAGCCCCUGUCAGUUUCUGGUGAUUCUGCGAAUUCUGCUAUAUAUCUC [A47U A57U G73A]	0.77
UAACAGGGGGCCACAGCAGAAGCGUUCACGUCGCAGCCCCUGUCAGGUUCUGGUGAAUCCGCUAAUUCUGCAGUAUAUCUC [A47G U60C G63U U72A]	0.28
UAACAGGGGGCCACAGCAGAAGCGUUCACGUCGCAGCCCCUGUCAGUUUCCGGUCUAUCCGCGAAUUCUGCUGUAUAUCUC [A47U U51C G55C A56U U60C]	0.25
UAACAGGGGGCCACAGCAGAAGCGUUCACGUCGCAGCCCCUGUCUGAUUCUGGUGAAUCUGCGAAUUCUGCCGCAUAUCUC [A45U U72C U74C]	0.59
UAACAGGGGGCCACAGCAGAAGCGUUCACGUCGCAGCCCCUGUCAGGUUCUGGUGAAUCCGCGAAUUCUGCUGUAUAUCCC [A47G U60C U80C]	0.32
UAACAGGGGGCCACAGCAGAAGCGUUCACGUCGCAGCCCCUGUCAGGUUCUGGUGAAUCCGCGAAUUCUGCUGUAUACCUC [A47G U60C U78C]	0.34
UAACAGGGGGCCACAGCAGAAGCGUUCACGUCGCAGCCCCUGUCAGGUUCUGGUGAAUCUGCGAAUUCUGCUAUAUAUCUU [A47G G73A C81U]	1.31
UAACAGGGGGCCACAGCAGAAGCGUUCACGUCGCAGCCCCUGUCAGUUUCUGGUAGAUCUGCGAAUUCUACUGUAUAUCUC [A47U G55A A56G G70A]	0.1
UAACAGGGGGCCACAGCAGAAGCGUUCACGUCGCAGCCCCUGUCAGGUUCUGGUGAAUCUGCGAAUUAUGCUGUAUAUCAC [A47G C68A U80A]	0.37
